Source: paper PMC4336329 (PLoS ONE, 2015)
Screen size: about 310,000 compounds; about 2,200 (0.71%) showed an effect of 50% or more. The effect is printed as a negative number. Some of the results follow.

Each molecule was assayed against human ether-à-go-go-related gene (hERG) potassium channel (human, UniProt Q12809) (assay: primary screen, population patch clamp on CHO cells stably expressing hERG).
human ether-à-go-go-related gene (hERG) potassium channel, sequence (Q12809 whole entry, looked up): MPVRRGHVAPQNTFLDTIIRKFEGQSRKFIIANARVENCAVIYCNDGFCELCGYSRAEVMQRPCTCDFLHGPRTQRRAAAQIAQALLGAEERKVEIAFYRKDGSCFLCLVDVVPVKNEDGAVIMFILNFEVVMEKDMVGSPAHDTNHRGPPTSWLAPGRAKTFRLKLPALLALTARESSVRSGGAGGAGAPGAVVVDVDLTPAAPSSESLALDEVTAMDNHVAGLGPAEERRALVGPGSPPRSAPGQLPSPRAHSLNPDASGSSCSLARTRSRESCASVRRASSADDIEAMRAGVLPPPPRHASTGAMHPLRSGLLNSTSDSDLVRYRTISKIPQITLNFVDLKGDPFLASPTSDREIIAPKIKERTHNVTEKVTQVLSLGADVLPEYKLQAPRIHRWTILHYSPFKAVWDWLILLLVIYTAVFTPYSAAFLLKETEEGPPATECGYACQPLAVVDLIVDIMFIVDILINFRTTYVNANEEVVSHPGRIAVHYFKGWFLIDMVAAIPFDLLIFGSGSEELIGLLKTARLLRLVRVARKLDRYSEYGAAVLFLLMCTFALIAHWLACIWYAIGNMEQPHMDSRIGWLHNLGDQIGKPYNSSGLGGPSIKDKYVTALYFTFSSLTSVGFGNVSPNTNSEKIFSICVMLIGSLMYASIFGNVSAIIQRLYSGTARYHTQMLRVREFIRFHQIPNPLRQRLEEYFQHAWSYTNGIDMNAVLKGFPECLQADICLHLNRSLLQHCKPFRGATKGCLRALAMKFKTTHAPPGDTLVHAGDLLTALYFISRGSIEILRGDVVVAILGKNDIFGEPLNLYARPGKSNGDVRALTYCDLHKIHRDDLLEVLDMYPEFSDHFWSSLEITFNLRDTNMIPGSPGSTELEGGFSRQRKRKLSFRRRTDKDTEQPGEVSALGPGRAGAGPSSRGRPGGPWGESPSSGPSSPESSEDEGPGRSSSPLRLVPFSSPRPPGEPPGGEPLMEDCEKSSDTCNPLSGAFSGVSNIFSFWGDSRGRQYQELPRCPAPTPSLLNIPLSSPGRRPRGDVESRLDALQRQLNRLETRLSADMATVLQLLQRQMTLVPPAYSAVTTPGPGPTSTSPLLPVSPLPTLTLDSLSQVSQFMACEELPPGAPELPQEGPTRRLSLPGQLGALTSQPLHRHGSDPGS

Compound | hERG current change (%, negative = inhibition) at 1uM
O=C(CCc1ccccc1)NNc1cc(N2CCCCC2)nc(N2CCCCC2)n1 | 8.66%
O=C(Nc1ccc(F)cc1)c1ccc(C(=O)N2CCOCC2)cc1 | 9.78%
C=CCOc1ccc(/C=N/NC(=O)C(=O)Nc2ccccn2)cc1OC | -17.8%
COc1cccc(CN(CC2CCCO2)S(=O)(=O)c2ccc(S(=O)(=O)NCC3CCCO3)cc2)c1OC (stereo not drawn) | 1.47%
CC1(C)CC2CC(C)(CN2C(=O)COc2cccc3ccccc23)C1 (stereo not drawn) | 1.41%
Cn1nccc1C(=O)NC1CCCc2c1cnn2-c1cc(F)cc(F)c1 (stereo not drawn) | 1.03%
COc1ccc(/C=C2\SC(=S)N(CC(=O)OCC(=O)Nc3ccc(C)cc3Cl)C2=O)cc1 | 10.9%
CC(=O)Nc1cccc(/C(C)=N/NC(=O)c2ccc(Cl)cc2Cl)c1 | 7.02%
O=C(N=C1SC2CS(=O)(=O)CC2N1Cc1ccc(Cl)cc1)C1CC1 (stereo not drawn) | 16.1%
C/C(=N/NS(=O)(=O)c1ccccc1)c1ccc(NC(=O)C(F)(F)F)cc1 | 2.19%
CCOc1cc(C(=O)N2CCN(c3ccc(C(C)=O)cc3)CC2)cc(OCC)c1OCC | -8.84%
CCOc1cccc(CN2CCC(n3nccc3NC(=O)C3CCCC3)CC2)c1 | -42.6%
CSc1ccc(/C=C(/NC(=O)c2ccc(C)cc2)C(=O)Nc2cccc(F)c2)cc1 | 13.5%
CC(CC(=O)NC1CCCC1)c1ccccc1 (stereo not drawn) | -0.0392%
CCOC(=O)N1CCC(NC(=O)C2CCCN(c3nc4ccccc4o3)C2)CC1 (stereo not drawn) | -8.44%
O=C(CCn1nnc2ccccc21)N/N=C\Cc1ccccc1 | 8.76%
CCCCOc1ccc(C(NC(=O)OCC)NC(=O)OCC)cc1 | 15.2%
COc1ccc(CCNC(=O)C2(C)CCC(=O)N2CCC(C)C)cc1OC (stereo not drawn) | -7.9%
Cc1cc(C)c2c(c1)C(=O)/C(=C/c1ccc(C(=O)O)cc1)CC2 | 16.6%
COC(=O)c1cc(S(=O)(=O)NCC2CCN(Cc3ccc(Cl)cc3)CC2)c[nH]1 | -59.6%
CC(=O)NC1N=C(C)N(c2ccccc2)C1=O (stereo not drawn) | -2.75%
Cc1nnc(SCC(=O)Nc2ncc(Cl)cc2Cl)n1Cc1ccccc1 | -0.0814%
CCOc1ccccc1C(=O)NCCc1cnc[nH]1 | 14.7%

Compound | hERG current change (%, negative = inhibition) at 1uM
Cc1ccc(Cl)cc1NC(=O)COC(=O)CC1CCCCC1 | 13.7%
Cc1ccc(CN2CCN(CCC(C)C)C(CCO)C2)s1 (stereo not drawn) | -1.86%
Cc1ccc(CNC(=S)NCc2ccncc2)cc1 | -6.94%
O=C(NCc1ccccc1)c1nc(S(=O)(=O)Cc2ccccc2)ncc1Cl | 9.48%
COc1ccc(OC)c(C(c2nnnn2CCc2ccccc2)N2CCN(c3ccccc3)CC2)c1 (stereo not drawn) | 0.508%
O=C(O)CCCN1C(=O)/C(=C/c2ccc(-c3nc4ccccc4s3)o2)SC1=S | 16.2%
COc1ccc(NC(=O)CC2C(=O)N(c3cccc(OC)c3)C(=O)N2C(C)C)cc1 (stereo not drawn) | -4.65%
Cc1nnc(SCC(=O)Nc2ccc3c(c2)OCCO3)n1CC1CCCO1 (stereo not drawn) | 0.653%
COC(=O)c1cccc(S(=O)(=O)N2CCCCC2)c1 | 0.121%
COc1cccc(C2=CC(c3cccc(OC)c3OC(F)F)n3nnnc3N2)c1 (stereo not drawn) | 11.2%
CC1CCN(C(=O)COC(=O)c2ccc(F)c(S(=O)(=O)N3CCOCC3)c2)CC1 | 22.9%
COc1ccc(/C=N/Nc2ncnc(Cl)c2N)cc1OC | 8.48%
COc1ccc(-c2cc(=O)c3c(O)cc(O)cc3o2)cc1 | 12.6%
COc1ccc(-c2cc(C)no2)cc1S(=O)(=O)N1CCN(C(=O)c2ccco2)CC1 | 5.94%
Cc1ccc(NNC(=O)c2ccno2)cc1C | 9.92%
NS(=O)(=O)c1ccc(N/N=C/c2ccc(C(=O)O)cc2)c([N+](=O)[O-])c1 | 3.6%
COc1ccc(N(CC(=O)NC(C)c2ccccc2)S(=O)(=O)c2c(C)noc2C)cc1 (stereo not drawn) | 9.76%
O=C(Oc1ccc(Br)cc1)c1cccc(S(=O)(=O)N2CCOCC2)c1 | -3.81%
O=c1cc(N2CCN(Cc3ccccc3)CC2)[nH]c(=O)n1-c1ccc(Br)cc1 | 1.5%
CC(C)(C)C(=O)NC1CCN(S(=O)(=O)c2ccc(C(F)(F)F)cc2)CC1 | -11.7%
CC(=O)Oc1ccc(C23CC4CC(CC(C4)C2)C3)cc1C(=O)O | 7.6%
CCCC(=O)Nc1ccc(Oc2ccc(NC(=O)CCC)cc2)cc1 | -5.63%
